Reference: IntAct's records for PubMed 31515488

B1: Myeloid differentiation primary response protein MyD88 (Homo sapiens), Q99836 (parent)
chain: MAAGGPGAGSAAPVSSTSSLPLAALNMRVRRRLSLFLNVRTQVAADWTALAEEMDFEYLEIRQLETQADPTGRLLDAWQGRPGASVGRLLELLTKLGRDDVLLELGPSIEEDCQKYILKQQQEEAEKPLQVAAVDSSVPRTAELAGITTLDDPLGHMPERFDAFICYCPSDIQFVQEMIRQLEQTNYRLKLCVSDRDVLPGTCVWSIASELIEKRCRRMVVVVSDDYLQSKECDFQTKFALSLSPGAHQKRLIPIKYKAMKKEFPSILRFITVCDYTNPCTKSWFWTRLAKALSLP
partner: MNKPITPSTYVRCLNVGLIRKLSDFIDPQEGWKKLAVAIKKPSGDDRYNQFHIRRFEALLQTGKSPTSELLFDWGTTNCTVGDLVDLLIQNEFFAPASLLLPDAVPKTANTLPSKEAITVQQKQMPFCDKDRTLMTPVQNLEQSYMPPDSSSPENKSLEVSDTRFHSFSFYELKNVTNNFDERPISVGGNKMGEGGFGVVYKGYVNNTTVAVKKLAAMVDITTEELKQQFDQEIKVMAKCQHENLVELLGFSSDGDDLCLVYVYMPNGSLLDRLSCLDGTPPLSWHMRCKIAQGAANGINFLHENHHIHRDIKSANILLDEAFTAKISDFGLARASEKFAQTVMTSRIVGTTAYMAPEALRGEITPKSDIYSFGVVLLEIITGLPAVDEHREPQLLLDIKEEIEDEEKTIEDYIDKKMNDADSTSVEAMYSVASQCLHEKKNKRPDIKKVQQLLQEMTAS
B2: Cytoplasmic dynein 1 light intermediate chain 1 (Homo sapiens), Q9Y6G9 (parent)
chain: MAAVGRVGSFGSSPPGLSSTYTGGPLGNEIASGNGGAAAGDDEDGQNLWSCILSEVSTRSRSKLPAGKNVLLLGEDGAGKTSLIRKIQGIEEYKKGRGLEYLYLNVHDEDRDDQTRCNVWILDGDLYHKGLLKFSLDAVSLKDTLVMLVVDMSKPWTALDSLQKWASVVREHVDKLKIPPEEMKQMEQKLIRDFQEYVEPGEDFPASPQRRNTASQEDKDDSVVLPLGADTLTHNLGIPVLVVCTKCDAISVLEKEHDYRDEHFDFIQSHIRKFCLQYGAALIYTSVKENKNIDLVYKYIVQKLYGFPYKIPAVVVEKDAVFIPAGWDNDKKIGILHENFQTLKAEDNFEDIITKPPVRKFVHEKEIMAEDDQVFLMKLQSLLAKQPPTAAGRPVDASPRVPGGSPRTPNRSVSSNVASVSPIPAGSKKIDPNMKAGATSEGVLANFFNSLLSKKTGSPGGPGVSGGSPAGGAGGGSSGLPPSTKKSGQKPVLDVHAELDRITRKPVTVSPTTPTSPTEGEAS
partner: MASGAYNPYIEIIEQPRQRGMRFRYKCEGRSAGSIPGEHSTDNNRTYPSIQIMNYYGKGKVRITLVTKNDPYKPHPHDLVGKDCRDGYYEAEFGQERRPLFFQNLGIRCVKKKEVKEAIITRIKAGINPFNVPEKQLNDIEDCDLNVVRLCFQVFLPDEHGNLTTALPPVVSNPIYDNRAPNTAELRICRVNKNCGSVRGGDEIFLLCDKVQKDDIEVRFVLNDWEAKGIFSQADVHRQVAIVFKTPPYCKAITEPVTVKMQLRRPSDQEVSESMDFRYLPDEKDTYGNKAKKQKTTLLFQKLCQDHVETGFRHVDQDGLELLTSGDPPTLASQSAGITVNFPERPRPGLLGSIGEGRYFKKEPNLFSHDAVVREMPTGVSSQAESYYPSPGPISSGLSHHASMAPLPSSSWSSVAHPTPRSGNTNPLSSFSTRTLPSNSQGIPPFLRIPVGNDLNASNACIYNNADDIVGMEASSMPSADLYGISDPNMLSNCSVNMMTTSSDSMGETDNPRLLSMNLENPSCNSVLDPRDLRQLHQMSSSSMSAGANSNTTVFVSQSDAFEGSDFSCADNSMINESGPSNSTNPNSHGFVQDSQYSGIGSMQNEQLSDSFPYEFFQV
B3: Properdin (Homo sapiens), P27918 (parent)
chain: MITEGAQAPRLLLPPLLLLLTLPATGSDPVLCFTQYEESSGKCKGLLGGGVSVEDCCLNTAFAYQKRSGGLCQPCRSPRWSLWSTWAPCSVTCSEGSQLRYRRCVGWNGQCSGKVAPGTLEWQLQACEDQQCCPEMGGWSGWGPWEPCSVTCSKGTRTRRRACNHPAPKCGGHCPGQAQESEACDTQQVCPTHGAWATWGPWTPCSASCHGGPHEPKETRSRKCSAPEPSQKPPGKPCPGLAYEQRRCTGLPPCPVAGGWGPWGPVSPCPVTCGLGQTMEQRTCNHPVPQHGGPFCAGDATRTHICNTAVPCPVDGEWDSWGEWSPCIRRNMKSISCQEIPGQQSRGRTCRGRKFDGHRCAGQQQDIRHCYSIQHCPLKGSWSEWSTWGLCMPPCGPNPTRARQRLCTPLLPKYPPTVSMVEGQGEKNVTFWGRPLPRCEELQGQKLVVEEKRPCLHVPACKDPEEEEL
partner: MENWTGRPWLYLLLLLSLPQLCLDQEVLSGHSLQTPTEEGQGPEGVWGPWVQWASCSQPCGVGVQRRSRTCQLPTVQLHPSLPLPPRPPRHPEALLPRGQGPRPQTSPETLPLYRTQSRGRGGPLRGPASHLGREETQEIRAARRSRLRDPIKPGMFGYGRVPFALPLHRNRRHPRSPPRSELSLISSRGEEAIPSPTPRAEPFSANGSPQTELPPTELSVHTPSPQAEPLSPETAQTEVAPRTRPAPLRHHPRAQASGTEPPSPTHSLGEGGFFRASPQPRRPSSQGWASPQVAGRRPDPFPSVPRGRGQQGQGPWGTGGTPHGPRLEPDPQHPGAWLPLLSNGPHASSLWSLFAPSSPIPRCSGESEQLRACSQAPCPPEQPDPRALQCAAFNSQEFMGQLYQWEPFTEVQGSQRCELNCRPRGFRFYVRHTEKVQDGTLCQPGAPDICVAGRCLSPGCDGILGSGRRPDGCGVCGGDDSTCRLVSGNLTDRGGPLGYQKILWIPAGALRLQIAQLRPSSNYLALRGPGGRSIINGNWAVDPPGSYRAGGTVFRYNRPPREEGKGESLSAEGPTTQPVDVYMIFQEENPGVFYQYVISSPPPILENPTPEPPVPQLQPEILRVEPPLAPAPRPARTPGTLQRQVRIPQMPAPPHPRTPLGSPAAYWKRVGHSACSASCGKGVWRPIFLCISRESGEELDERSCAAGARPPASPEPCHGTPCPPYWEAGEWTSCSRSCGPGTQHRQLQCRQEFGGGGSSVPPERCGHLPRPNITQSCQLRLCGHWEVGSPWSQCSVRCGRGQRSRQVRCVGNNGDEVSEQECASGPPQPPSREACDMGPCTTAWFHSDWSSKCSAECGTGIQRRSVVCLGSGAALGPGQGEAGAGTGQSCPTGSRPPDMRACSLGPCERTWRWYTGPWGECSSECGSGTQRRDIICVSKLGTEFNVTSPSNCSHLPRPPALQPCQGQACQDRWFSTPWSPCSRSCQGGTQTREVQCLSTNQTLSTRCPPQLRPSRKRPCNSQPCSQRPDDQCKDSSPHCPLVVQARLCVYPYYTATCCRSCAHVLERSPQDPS

Variants of: B1
Details: with irak4_human IRAK4, Q9NWZ3

Variant | effect of a mutation on the interaction
L93P | disrupting interaction strength
R196C | disrupting interaction strength

Variants of: B2
Details: with rel_human REL

Variant | effect of a mutation on the interaction
Q277R | disrupting interaction strength
V146A | with no effect

Variants of: B3
Details: with atl4_human ADAMTSL4, Q6UY14

Variant | effect of a mutation on the interaction
P409L | with no effect
M420T | with no effect
